The chains are these.
B1: Caulobacter ParB omega fusion; a variant is named by its letters at X, in order, B8GW30 (parent)
chain: MESVVVGEPGMSEGRRGLGRGLSALLGEVDAAPAQAPGEQLGGSREAPIEILQRNPDQPRRTFREEDLEDLSNSIREKGVLQPILVRPSPDTAGEYQIVAGERAWRAAQRAGLKTVPIMVRELDDLAVLEIGIIENVQRADLNVLEEALSYKVLMEKFERTQENIAQTIGKSXSHVANXMRLLXLPDEVQSYLVSGELTAXHARAIAAAADPVALAKQIIEGGLSVRETEALARKAPNLSAGKSKGGRPPRVKDTDTQALESDLSSVLGLDVSIDHRGSTGTLTITYATLEQLDDLCNRLTRGI

From a collection of fitness landscapes (doi:10.1016/j.celrep.2020.107928) come the findings set out here.

Over roughly 81,000 sequences, “one-hybrid fitness for binding NBS DNA” has its median near -0.1; the highest 2% begin near 0.36. Some of the results follow. Some results are limits rather than exact numbers.

The variants in this assay derive from B1. As to the kind of experiment: one-hybrid fitness for binding NBS DNA (the Noc-binding site; scaled: cognate 1, non-cognate 0); higher = stronger binding. The following applies: with NBS DNA site. In outline:
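Selection: bacterial one-hybrid in E. coli USO, HIS3 reporter with the site 19 bp from the promoter, 48 hours at 37°C on M9-minus-histidine plus 0.1 mM IPTG and 5 mM 3-AT. Libraries were Caulobacter ParB with four randomised specificity codons, sequenced on Illumina before and after selection. Fitness is the rescaled log change in variant-to-wild-type read ratio, anchored to the cognate and non-cognate sites.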
With ENCR, the “one-hybrid fitness for binding NBS DNA” value was at most 0.2. Regarding VDLE, the “one-hybrid fitness for binding NBS DNA” value is at most 0.2.

As to VLPH, the “one-hybrid fitness for binding NBS DNA” value was at most 0.2.

Consider QIDE, for which the “one-hybrid fitness for binding NBS DNA” value is at most 0.2. Next, YMSG: at most 0.2; PVTK: at most 0.2.

For the variant YDQM, the “one-hybrid fitness for binding NBS DNA” value is at most 0.2. In the case of ILAM, the “one-hybrid fitness for binding NBS DNA” value is at most 0.2. The value for IRNF was at most 0.2; that for ATGA was at most 0.2; that for KKQP was at most 0.2. The value for LTCA was at most 0.2; that for ACKH was at most 0.2; that for QAQC was at most 0.2. The value for PHKL was at most 0.2; that for TSDS was at most 0.2. For the variant GCDR, the “one-hybrid fitness for binding NBS DNA” value was at most 0.2.

With FTHC, the “one-hybrid fitness for binding NBS DNA” value was at most 0.2. The value for TATT was at most 0.2; that for KCGR was at most 0.2. In the case of IEWL, the “one-hybrid fitness for binding NBS DNA” value was at most 0.2.

With SKAH, the “one-hybrid fitness for binding NBS DNA” value was at most 0.2.

In the case of TPTG, the “one-hybrid fitness for binding NBS DNA” value is at most 0.2. Next, CYGG: at most 0.2; PGCE: at most 0.2.

On to GWSN, for which the “one-hybrid fitness for binding NBS DNA” value is at most 0.2. The value for SWPS was at most 0.2; that for SWQM was at most 0.2; that for QQSM was at most 0.2. Next, TKHW: at most 0.2. The value for PNSA was at most 0.2; that for KRYF was at most 0.2. Turning to GTYR, the “one-hybrid fitness for binding NBS DNA” value is at most 0.2. Next, RIIY: at most 0.2; VPNC: at most 0.2. Next, LMGD: at most 0.2. The value for QLVD was at most 0.2. Consider QKKP, for which the “one-hybrid fitness for binding NBS DNA” value was found to be 0.26.

With LLEV, the “one-hybrid fitness for binding NBS DNA” value was at most 0.2. MRKK: the “one-hybrid fitness for binding NBS DNA” value was at most 0.2. On to HRGM, for which the “one-hybrid fitness for binding NBS DNA” value is at most 0.2. On to PRDA, for which the “one-hybrid fitness for binding NBS DNA” value is at most 0.2. The value for PKAM was at most 0.2; that for NECC was at most 0.2. For the variant QPKI, the “one-hybrid fitness for binding NBS DNA” value was at most 0.2. The value for QSPD was at most 0.2. The value for PRVN was at most 0.2; that for CSPT was at most 0.2. The value for SQQC was at most 0.2. For the variant IVAD, the “one-hybrid fitness for binding NBS DNA” value is at most 0.2. Next, LPEV: at most 0.2; DANS: at most 0.2; HSEG: at most 0.2. The value for HRPY was at most 0.2; that for MTKS was at most 0.2. The value for HDTP was at most 0.2; that for VHNG was at most 0.2. Take SLMQ: the “one-hybrid fitness for binding NBS DNA” value was at most 0.2. Turning to NRKN, the “one-hybrid fitness for binding NBS DNA” value is at most 0.2. Next, QMLD: at most 0.2; SREV: at most 0.2; MMAV: at most 0.2.

For the variant DGGT, the “one-hybrid fitness for binding NBS DNA” value was at most 0.2. The value for EHLY was at most 0.2; that for DATW was at most 0.2; that for DAIN was at most 0.2.

In the case of FWSS, the “one-hybrid fitness for binding NBS DNA” value is at most 0.2. Next, YVKV: at most 0.2; PLRA: at most 0.2. Next, DRFG: at most 0.2; WQFR: at most 0.2. KKVN: the “one-hybrid fitness for binding NBS DNA” value was at most 0.2.

Turning to NLEW, the “one-hybrid fitness for binding NBS DNA” value is at most 0.2. Next, IHLY: at most 0.2. The value for RTAY was at most 0.2; that for MWNT was at most 0.2; that for QGDR was at most 0.2.

Consider HHLD, for which the “one-hybrid fitness for binding NBS DNA” value is at most 0.2.

In the case of ALPV, the “one-hybrid fitness for binding NBS DNA” value is at most 0.2. With QEGS, the “one-hybrid fitness for binding NBS DNA” value is at most 0.2. The value for AKQW was at most 0.2; that for DATV was at most 0.2; that for VHVG was at most 0.2.

As to LKAE, the “one-hybrid fitness for binding NBS DNA” value is at most 0.2. LIKL: the “one-hybrid fitness for binding NBS DNA” value is at most 0.2. Turning to ADWS, the “one-hybrid fitness for binding NBS DNA” value was at most 0.2. Next, IFLM: at most 0.2; ALGV: at most 0.2; GMPE: at most 0.2. The value for CNKT was at most 0.2; that for CYRC was at most 0.2. Next, QDIR: at most 0.2; SSAT: at most 0.2. As for WHKT, the “one-hybrid fitness for binding NBS DNA” value is at most 0.2. The value for QQVY was at most 0.2.

In the case of QVYM, the “one-hybrid fitness for binding NBS DNA” value is at most 0.2. The value for GVRR was 0.213; that for LSRI was at most 0.2; that for AILT was at most 0.2. In the case of TLCC, the “one-hybrid fitness for binding NBS DNA” value was at most 0.2. As to DEPS, the “one-hybrid fitness for binding NBS DNA” value is at most 0.2. The value for DLNV was at most 0.2; that for KWWR was at most 0.2. Next, LEAC: at most 0.2. Next, THGI: at most 0.2; CYWL: at most 0.2.

Turning to HWYM, the “one-hybrid fitness for binding NBS DNA” value is at most 0.2. The value for HVIC was at most 0.2; that for VAWS was at most 0.2; that for PSER was at most 0.2. The value for LVPD was at most 0.2. Consider QAMF, for which the “one-hybrid fitness for binding NBS DNA” value is at most 0.2. With KRGC, the “one-hybrid fitness for binding NBS DNA” value is at most 0.2. On to LPRF, for which the “one-hybrid fitness for binding NBS DNA” value was at most 0.2. The value for ILSR was at most 0.2; that for FGHC was at most 0.2; that for QQNM was 0.206.

Turning to DTMQ, the “one-hybrid fitness for binding NBS DNA” value was at most 0.2. Next, KKHT: 0.274; RYNF: at most 0.2.

As to MEPC, the “one-hybrid fitness for binding NBS DNA” value was at most 0.2. The value for PQCT was at most 0.2.

On to YHHA, for which the “one-hybrid fitness for binding NBS DNA” value is at most 0.2. The value for IQGS was at most 0.2; that for DPMA was at most 0.2. Next, WMTC: at most 0.2; SGCG: at most 0.2; QDSN: at most 0.2. Turning to TWLA, the “one-hybrid fitness for binding NBS DNA” value was at most 0.2.

For the variant MRLP, the “one-hybrid fitness for binding NBS DNA” value is at most 0.2. The value for ADDH was at most 0.2.

On to LDPA, for which the “one-hybrid fitness for binding NBS DNA” value was at most 0.2. The value for VWTL was at most 0.2; that for EWKR was at most 0.2; that for NDCA was at most 0.2.

As to KMVT, the “one-hybrid fitness for binding NBS DNA” value is at most 0.2.

Regarding TITP, the “one-hybrid fitness for binding NBS DNA” value was at most 0.2.

Turning to QTIQ, the “one-hybrid fitness for binding NBS DNA” value is at most 0.2. Next, CIFR: at most 0.2. The value for TEIG was at most 0.2; that for IGSW was at most 0.2. The value for VYER was at most 0.2; that for HAAC was at most 0.2; that for FQSI was at most 0.2.

With QIRR, the “one-hybrid fitness for binding NBS DNA” value came out at 0.867. The value for LFET was at most 0.2; that for KPDI was at most 0.2; that for TCTP was at most 0.2. Regarding RIQR, the “one-hybrid fitness for binding NBS DNA” value stood at 0.38. The value for DHDY was at most 0.2. Next, EFRS: at most 0.2; RAVS: 0.239; QNVT: at most 0.2. Next, GDSK: at most 0.2; AGSD: at most 0.2.

Take SFIT: the “one-hybrid fitness for binding NBS DNA” value was at most 0.2. Next, PWCC: at most 0.2; WSKF: at most 0.2.

With MCPS, the “one-hybrid fitness for binding NBS DNA” value is at most 0.2. Next, RNYE: at most 0.2; LAPP: at most 0.2; DVPK: at most 0.2.

On to FSMS, for which the “one-hybrid fitness for binding NBS DNA” value was at most 0.2. The value for AKYW was at most 0.2; that for PQHT was at most 0.2; that for YADF was at most 0.2. As to FCNR, the “one-hybrid fitness for binding NBS DNA” value was at most 0.2.

With MWWG, the “one-hybrid fitness for binding NBS DNA” value was at most 0.2. The value for SCTD was at most 0.2; that for RRFL was at most 0.2. Next, PYLW: at most 0.2; TAIG: at most 0.2. For the variant AEKM, the “one-hybrid fitness for binding NBS DNA” value is at most 0.2. The value for RWPK was at most 0.2; that for TYRL was at most 0.2; that for WRVT was at most 0.2. Next, CQPR: at most 0.2; ADPW: at most 0.2; CPLK: at most 0.2. The value for LVAN was at most 0.2.

WPVN: the “one-hybrid fitness for binding NBS DNA” value was at most 0.2. With RPAG, the “one-hybrid fitness for binding NBS DNA” value is at most 0.2. Next, PMDS: at most 0.2; LCGL: at most 0.2. Consider NRHA, for which the “one-hybrid fitness for binding NBS DNA” value was at most 0.2. Next, QPKV: at most 0.2.

In the case of YLVN, the “one-hybrid fitness for binding NBS DNA” value is at most 0.2. The value for NSTE was at most 0.2; that for VDRR was at most 0.2. Next, RKRC: 0.4; IRTF: at most 0.2; MCKC: at most 0.2. The value for KCMV was at most 0.2; that for GELL was at most 0.2. Regarding KVGL, the “one-hybrid fitness for binding NBS DNA” value was at most 0.2.
